According to a collection of fitness landscapes (doi:10.1016/j.celrep.2020.107928):
In all, about 81,000 sequences were measured (“one-hybrid fitness for binding parS DNA”: median about -0.17, highest 2% from about 0.51 on). This is one part of the list.

B1: Caulobacter ParB omega fusion; a variant is named by its letters at X, in order, B8GW30 (parent)
chain: MESVVVGEPGMSEGRRGLGRGLSALLGEVDAAPAQAPGEQLGGSREAPIEILQRNPDQPRRTFREEDLEDLSNSIREKGVLQPILVRPSPDTAGEYQIVAGERAWRAAQRAGLKTVPIMVRELDDLAVLEIGIIENVQRADLNVLEEALSYKVLMEKFERTQENIAQTIGKSXSHVANXMRLLXLPDEVQSYLVSGELTAXHARAIAAAADPVALAKQIIEGGLSVRETEALARKAPNLSAGKSKGGRPPRVKDTDTQALESDLSSVLGLDVSIDHRGSTGTLTITYATLEQLDDLCNRLTRGI

Variants of: B1
Assay: one-hybrid fitness for binding parS DNA (scaled: cognate 1, non-cognate 0); higher = stronger binding
Conditions: with parS DNA site
Procedure, shortened: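 Fitness here means the log change in variant-to-wild-type read ratio between plasmids sequenced before and after selection. That scale was set so cognate equals 1 and non-cognate equals 0. The selection was a bacterial one-hybrid screen of Caulobacter ParB libraries, four specificity codons randomised, in E. coli USO carrying a HIS3 reporter with the site 19 bp from the promoter, grown 48 hours at 37°C on M9-minus-histidine with 0.1 mM IPTG and 5 mM 3-AT.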

Variant | one-hybrid fitness for binding parS DNA
HYWS | ≤ 0.2
VVRA | ≤ 0.2
YLAW | ≤ 0.2
QCRL | ≤ 0.2
DRRF | ≤ 0.2
RLLY | 0.505
SPKV | ≤ 0.2
VICC | ≤ 0.2
QSGI | ≤ 0.2
HIHT | ≤ 0.2
RDSV | ≤ 0.2
PNVC | ≤ 0.2
KREK | ≤ 0.2
RICH | 0.24
TMLG | ≤ 0.2
VCLV | ≤ 0.2
PNDN | ≤ 0.2
PRKS | ≤ 0.2
RCGI | ≤ 0.2
LLNI | ≤ 0.2
QLQW | ≤ 0.2
NPER | ≤ 0.2
IMAM | ≤ 0.2
QLQQ | ≤ 0.2
ICGY | ≤ 0.2
GIRG | ≤ 0.2

Variant | one-hybrid fitness for binding parS DNA
TAGC | ≤ 0.2
MWRR | ≤ 0.2
SPTW | ≤ 0.2
ASWV | ≤ 0.2
ADKY | ≤ 0.2
RRNA | 0.627
AVVM | ≤ 0.2
MVLH | ≤ 0.2
LPVR | ≤ 0.2
PDEH | ≤ 0.2
TYSY | ≤ 0.2
MKKW | ≤ 0.2
QVKA | ≤ 0.2
IVPT | ≤ 0.2
ATSL | ≤ 0.2
PEGG | ≤ 0.2
NGNS | ≤ 0.2
IVEC | ≤ 0.2
HFYT | ≤ 0.2
GGMG | ≤ 0.2
QQQK | ≤ 0.2
ATAI | ≤ 0.2
SPAR | ≤ 0.2
AAVW | ≤ 0.2
QCTM | ≤ 0.2
QTFE | ≤ 0.2

Variant | one-hybrid fitness for binding parS DNA
IDPL | ≤ 0.2
RCIW | 0.216
RSLC | 0.939
GQLW | ≤ 0.2
NATQ | ≤ 0.2
QTAP | ≤ 0.2
LNYG | ≤ 0.2
RCRE | ≤ 0.2
QSTR | ≤ 0.2
RHLT | 0.834
DAPC | ≤ 0.2
PRLP | ≤ 0.2
EYFS | ≤ 0.2
YGLY | ≤ 0.2
SIIC | ≤ 0.2
ETSQ | ≤ 0.2
KAPV | ≤ 0.2
YQPP | ≤ 0.2
PMEV | ≤ 0.2
GYSC | ≤ 0.2
PGHR | ≤ 0.2
PATI | ≤ 0.2
TLRS | ≤ 0.2
HRAD | ≤ 0.2
EEST | ≤ 0.2
FQRM | ≤ 0.2

Variant | one-hybrid fitness for binding parS DNA
RNPV | ≤ 0.2
ANYT | ≤ 0.2
TYVR | ≤ 0.2
CFLW | ≤ 0.2
PSVS | ≤ 0.2
LPNT | ≤ 0.2
AWTF | ≤ 0.2
KLRI | ≤ 0.2
VLAG | ≤ 0.2
HKTL | ≤ 0.2
PVDC | ≤ 0.2
QPAC | ≤ 0.2
QGKM | ≤ 0.2
DNQG | ≤ 0.2
LTAN | ≤ 0.2
RDLG | ≤ 0.2
KRIT | ≤ 0.2
MASC | ≤ 0.2
TSDD | ≤ 0.2
MADT | ≤ 0.2
VYYG | ≤ 0.2
NHDF | ≤ 0.2
ACPD | ≤ 0.2
SSTA | ≤ 0.2
YDFY | ≤ 0.2
QLKR | ≤ 0.2

Variant | one-hybrid fitness for binding parS DNA
QWAN | ≤ 0.2
FGPG | ≤ 0.2
CAVP | ≤ 0.2
ITFT | ≤ 0.2
RAKK | ≤ 0.2
PSQK | ≤ 0.2
RFAA | 0.559
TCRP | ≤ 0.2
LWGG | ≤ 0.2
LRFC | ≤ 0.2
VRMP | ≤ 0.2
RTIV | ≤ 0.2
QAHQ | ≤ 0.2
NCLS | ≤ 0.2
NRSE | ≤ 0.2
RGGC | 0.594
LAYG | ≤ 0.2
ANSA | ≤ 0.2
KEMS | ≤ 0.2
GLTK | ≤ 0.2
ADRN | ≤ 0.2
QYVE | ≤ 0.2
KMQS | ≤ 0.2
SWNA | ≤ 0.2
ICPS | ≤ 0.2
PFNI | ≤ 0.2

Variant | one-hybrid fitness for binding parS DNA
RNYT | 0.66
KYRN | ≤ 0.2
MPSS | ≤ 0.2
QWKT | ≤ 0.2
VCQC | ≤ 0.2
ALGI | ≤ 0.2
PLWS | ≤ 0.2
HKTT | ≤ 0.2
DATN | ≤ 0.2
EPCM | ≤ 0.2
RQNE | ≤ 0.2
RAYH | ≤ 0.2
RGQN | 0.249
FEIG | ≤ 0.2
RYPM | ≤ 0.2
VRVR | ≤ 0.2
THDI | ≤ 0.2
PAGK | ≤ 0.2
VVWY | ≤ 0.2
SLKL | ≤ 0.2
QCGV | ≤ 0.2
VPPC | ≤ 0.2
VDTE | ≤ 0.2
